# Data from PubChem BioAssay AID686971 (National Center for Advancing Translational Sciences (NCATS), 2013).
# Hit rate of the full screen: of about 360,000 compounds, about 7,500 (2.1%) were called active. This list was built around the results that the source calls inconclusive (neither active nor inactive); the mix of calls is not that of the screen. The call rests on the fitted dose curve; in most records, active means well fitted cell-killing curve with a large enough effect; inconclusive means small, poorly fitted or top-dose-only effect, or effect the other way, or another doubt; inactive means no such curve, though single readings can be large or run the other way. Potencies of inconclusive entries are left out as doubtful fits.
# Assay: qHTS for induction of synthetic lethality in tumor cells producing 2HG: qHTS for the HT-1080-IDH1KD cell line;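 on activity, negative = toxicity: 0% = DMSO wells and -100% = cell-free medium wells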
# Settings: HT-1080 IDH1 knockdown viability, ATP luminescence, 48 h; activity, negative = toxicity: at 46.1 µM (top of the series) unless noted
# Procedure, shortened: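 Cytotoxicity counter-line: IDH1KD HT-1080, 48 h, CellTiter-Glo. Curves classed by r2, magnitude and activity.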
# Potency means the concentration at half of the fitted maximal effect; tags describe the fitted curve by direction and shape.
Structure (SMILES),Potency,"activity, negative = toxicity"
CCOc1ccc(Cl)cc1-c1cc(C(=O)NCc2ccccc2)[nH]n1,"inconclusive [cytotoxic, single point]",–
Cc1cc(C)nc(SCc2nnc(SCC(=O)Nc3nc(-c4ccccc4)cs3)n2-c2ccccc2)n1,inactive,–
O=C1CC(c2cccc(Br)c2)c2cc3c(cc2N1)CCC3 (stereo unspecified),active: 4.47 µM,–
O=C(NCCSc1ccccc1)c1ccc(CN2CCOCC2)cc1,inactive,–
COC(=O)C1CCN(CCCOc2ccc(CN3CCN(c4ccc([N+](=O)[O-])cc4)CC3)cc2)CC1,"inconclusive [cytotoxic, single point]",–
C=C(C)C1Cc2c(C)nn(-c3cccc4cccnc34)c2C1 (stereo unspecified),inactive,–
CC(C)(C)c1ccc(OCc2ccc(C(=O)N/N=C/c3ccc([N+](=O)[O-])cc3)o2)cc1,"inconclusive [cytotoxic, single point]",–
CCCOC(=O)c1ccc(Oc2cn[nH]c2-c2ccc(OC)cc2O)cc1,active: 18.4 µM,–
O=C(Nc1ccc(Cl)cc1)c1cc2c(cc1O)[nH]c1ccccc12,active: 14.6 µM,–
Cn1cc([C@@H]2C[C@H]3CN(Cc4cccc(Cl)c4)C(=O)[C@]34CCCN24)c(-c2ccccc2)n1,inactive,–
CCCCOc1ccc(Br)cc1/C(C)=N/NC1=NCCN1,active: 6.51 µM,–
Cc1ccc(S(=O)(=O)N(C)CC(=O)Nc2ccc3c(c2)OCO3)cc1,inactive,–
COc1ccc(CNC(=O)c2cc3c(C)nc4ccccc4c3o2)c(OC)c1,"inconclusive [cytotoxic, single point]",–
COc1ccc(-c2csc(C(C)(O)c3cccnc3)n2)cc1 (stereo unspecified),"inconclusive [cytotoxic, single point]",–
COc1ccccc1Nc1nc2ccccc2[nH]1,"inconclusive [cytotoxic, partial curve]",–
CC(=O)Nc1cc(-c2ccccc2)cn2c(-c3cccc(C(C)=O)c3)cnc12,"inconclusive [cytotoxic, single point]",–
S=C(NCc1ccco1)N/N=C/c1cccnc1,inactive,–
O=S(=O)(Nc1cc(Sc2cccc3cccnc23)c(O)c2ccccc12)c1ccc(F)cc1,active: 20.6 µM,–
COc1ccccc1CNCc1cccc(Oc2ccccc2)c1,"inconclusive [cytotoxic, single point]",–
CCCCCn1c(=O)c2ccccc2n2c(=S)[nH]nc12,inactive,–
CCN1CCC(O)(/C=C/c2ccc(C)cc2)C(C(=O)/C=C/c2ccc(C)cc2)C1 (stereo unspecified),active: 11.6 µM,–
CCCNC(=O)C1CCN(S(=O)(=O)c2c(C)noc2/C=C\c2ccc(OC)cc2)CC1,inactive,–
O=C(Nc1ccc(OCc2ccccc2)cc1)c1cccc([N+](=O)[O-])c1,"inconclusive [cytotoxic, single point]",–
Cc1cccc(N2CCN(C(=O)c3c(C)nn(Cc4ccccc4Cl)c3C)CC2)c1C,"inconclusive [cytotoxic, single point]",–
CCCCC1(Cc2cccc([N+](=O)[O-])c2)C(=O)N(c2ccccc2)N(c2ccccc2)C1=O,"inconclusive [cytotoxic, single point]",–
COc1ccccc1NC(=O)CC1C(=O)NCCN1C(=O)Nc1ccc(Cl)c(Cl)c1 (stereo unspecified),"inconclusive [cytotoxic, single point]",–

Structure (SMILES),Potency,"activity, negative = toxicity"
COc1ccc(CNc2nc3ccccc3n2C)c(OC)c1,inactive,–
Cc1ccc([N+](=O)[O-])cc1S(=O)(=O)Nc1ccc(C(=O)N2CCN(C(=O)c3ccco3)CC2)cc1,inactive,–
O=C(NCc1ccccn1)C1CCCN(S(=O)(=O)c2cc(Cl)ccc2Cl)C1 (stereo unspecified),active: 5.8 µM,–
CC(C)c1ccc(N2C=Nc3ccc(C(C)C)cc3C2)cc1,active: 23.1 µM,–
N#CCCC(CCC#N)(CCC#N)c1cc[n+](CCc2ccccn2)cc1,inactive,–
COc1ccc(OC)c(NC(=O)NNC(=O)CCCOc2ccc(Cl)cc2C)c1,"inconclusive [cytotoxic, single point]",–
CCCOc1ccc(C2C(=O)N(C3CCCCCC3)CC(=O)N2Cc2ccco2)cc1OC (stereo unspecified),inactive,–
O=C(Cc1ccccc1)N/N=C/c1cc(Br)cc(Cl)c1O,"inconclusive [cytotoxic, partial curve]",–
COc1ccc(-n2cc(-c3ccccc3)c3c(N4CC(C)OC(C)C4)ncnc32)cc1 (stereo unspecified),active: 23.1 µM,–
CC(C)(C)c1ccc(NC(=O)N2CCCN(c3ccc([N+](=O)[O-])cn3)CC2)cc1,"inconclusive [cytotoxic, partial curve]",–
Cc1c(CCCN)c2ccccc2n1Cc1ccccc1,active: 20.6 µM,–
COC(=O)N/N=C/c1cn(CCCOc2ccccc2)c2ccccc12,"inconclusive [cytotoxic, partial curve, poor fit]",–
S=C(Nc1ccc(-c2nc3ccccc3[nH]2)cc1)Nc1cccnc1,"inconclusive [cytotoxic, single point]",–
Nc1nc(N)c2cc(Sc3cccc(C(F)(F)F)c3)ccc2n1,active: 5.8 µM,–
CC(C)N(c1ccccc1)c1ccc(NC(=O)COC(=O)CCN2C(=O)c3cccc([N+](=O)[O-])c3C2=O)cc1,"inconclusive [cytotoxic, single point]",–
Cc1c(C(=O)Nc2ccc3c(c2)OCO3)sc2nc(-c3ccccc3)cn12,inactive,–
O=C(CCC(=O)Nc1ccc(Br)cc1)N/N=C/c1cc([N+](=O)[O-])ccc1O,inactive,–
Cn1c(C(=O)NCc2ccccc2)cc2oc3ccccc3c21,"inconclusive [cytotoxic, single point]",–
CCCOC(=S)NC(=O)c1sc2ccccc2c1Cl,"inconclusive [cytotoxic, single point]",–
CN(C)C1CN(Cc2cn(Cc3ccc(Cl)cc3)nn2)S(=O)(=O)C1 (stereo unspecified),inactive,–
O=C(CC(NC(=O)OCc1ccccc1)c1nn[nH]n1)OCc1ccccc1 (stereo unspecified),inactive,–
Cc1nnc(SC(C)C(=O)Nc2ccc(Cl)cn2)n1Cc1ccccc1 (stereo unspecified),–,inactive: -5.12% [at 9.24 µM]
O=C(NCc1ccco1)c1cnn2c1NC(c1ccc(Br)cc1)CC2C(F)(F)F (stereo unspecified),"inconclusive [cytotoxic, single point]",–
CCOC(=O)C1(C)CCCCN1C(=O)c1cccc(Cl)c1 (stereo unspecified),inactive,–
COC(=O)CCc1c(C)c(C(=O)c2cc(OC)c(OC)c(OC)c2)c2ccccn12,"inconclusive [cytotoxic, single point]",–
O=C(C[C@H]1C[C@H](C(=O)N2CCCCC2)[C@@]2(CCc3ccccc3)c3[nH]c4ccc(Cl)cc4c3CCN2C1=O)NCCc1ccccn1,inactive,–

Structure (SMILES),Potency,"activity, negative = toxicity"
Cc1cc(SCC(=O)Nc2ccc(O)cc2)n2nc(C)c(-c3ccccc3)c2n1,"inconclusive [cytotoxic, partial curve]",–
CCCS(=O)(=O)NC(=O)C1(C)CCCN(C(=O)c2c(OC)cccc2OC)C1 (stereo unspecified),inactive,–
O=C(NC1CCCC1)C1CCCN(S(=O)(=O)c2cccc3cccnc23)C1 (stereo unspecified),inactive,–
O=S(=O)(CCNCCc1ccccc1)NCc1ccccc1,inactive,–
C=CCn1c(=NC(=O)c2cc(-c3cccs3)nc3ccccc23)sc2cc(S(N)(=O)=O)ccc21,inactive,–
NC(=O)c1ccc(NC(=O)c2cncn2-c2ccccc2)cc1,"inconclusive [rising, partial curve]",–
CCCC(=O)n1nc(-c2ccco2)nc1SCc1ccccc1,–,inconclusive: -0.2% [cytotoxic]
Cc1onc(-c2ccccc2)c1C(=O)Nc1sc2c(c1C#N)CCC2,"inconclusive [cytotoxic, single point]",–
OCC1(Cc2ccccc2C(F)(F)F)CCN(Cc2ccc3c(c2)CCO3)CC1,inactive,–
CC(=O)c1ccc(NC(=O)C(C)OC(=O)C2CCN(c3ccc(C(F)(F)F)cn3)CC2)cc1 (stereo unspecified),inactive,–
COc1ccccc1-c1nnc(SCC(=O)c2ccc(C3CCCCC3)cc2)n1Cc1ccco1,"inconclusive [cytotoxic, single point]",–
COc1ccc2c(CC(=O)NCCN3C(=O)S/C(=C\c4cccnc4)C3=O)coc2c1,inactive,–
O=C(N/N=C/c1ccc(Br)s1)c1ccc([N+](=O)[O-])cc1,–,inconclusive: -4.05% [cytotoxic]
CCN(CC)S(=O)(=O)c1cc(NC(=O)C(C)N(C)CC(=O)Nc2c(C)cccc2C)ccc1C (stereo unspecified),inactive,–
O=C(CS(=O)(=O)c1ccccc1)N1CCN(c2ccccc2)CC1,inactive,–
CN(C)c1ccc(N=c2sc3ccccc3n2C)cc1,inactive,–
Nc1ccc2c(c1)C(=O)C(=O)c1ccccc1-2,"inconclusive [cytotoxic, single point]",–
CNc1nnc(-c2cc3cc(Cl)ccc3oc2=O)s1,inactive,–
CCN(CC)CCNC1=NCCn2c1cc1cc(OC)ccc12,"inconclusive [cytotoxic, partial curve]",–
N/C(=N\OC(=O)c1ccccc1)c1ccccn1,"inconclusive [cytotoxic, single point]",–
COc1cccc2cc(C(=O)Nc3cc(C)cc(C)c3)/c(=N/NS(=O)(=O)c3ccccc3)oc12,"inconclusive [rising, single point]",–
COc1cc(OC)c(/C=N/NC(=O)c2ccc([N+](=O)[O-])cc2)cc1Br,"inconclusive [rising, partial curve, poor fit]",–
Cc1ccc2[nH]c(=O)c(CN(CCc3ccccc3)C(c3nnnn3Cc3ccco3)C(C)C)cc2c1 (stereo unspecified),active: 16.4 µM,–
Cc1ccccc1Cn1c2ccccc2c2cnn(CC(=O)NCCCN3CCN(C)CC3)c(=O)c21,"inconclusive [cytotoxic, single point]",–
